# The campaign covered roughly 150,000 compounds. About 540 (0.36%) showed an effect of 50% or more. The list shows a part of the results.
# Tested on: Plasmodium falciparum
# Test: Primary screen in NF54 nanoGlo assay, in single point, at 2uM, 72h; a lower Z score goes with more inhibition
# Format: functional, Erythrocyte
# Settings: timepoint 72 hour
Structure (SMILES),% Inhibition [%],Z score
O=C(Nc1cc(CCc2ccccc2)n[nH]1)[C@@H]1COCCO1,0,-0.04
O=C(c1cccnc1)c1ccc(F)c(F)c1,-4,0.69
CN(C)c1ccccc1C(=O)N1CCc2[nH]c(-c3cn[nH]c3)nc2C1,-4,0.73
Cc1cnc(C2CN([C@@H](C)C3CC3)C2)n1Cc1ccccc1,-20,2.56
COc1cc(C(=O)NCc2ccccn2)nc2c(C)cc(F)cc12,-7,0.98
CC1CC(C)n2nccc2N1C(=O)c1cc(C2CC2)nc2ccccc12 (stereo not given),-1,0.16
COc1ccc(OC)c(CNc2ncnc3c2nc2n3CCCCC2)c1,-16,2.6
Oc1nc2nonc2nc1Nc1ccccc1,16,-3
Cc1ccc(S(=O)(=O)CCc2noc(C(=O)NC(C)C)n2)cc1,-16,2.19
CC1(C)C(=O)N(Cc2ccccc2)CCN1C(=O)[C@@H]1COCCO1,-8,1.51
C[C@@H](CCc1ccccc1F)NCc1cccnc1,0,-0.03
COc1ccc(CN2CCC[C@H](S(C)(=O)=O)C2)cn1,-9,1.68
Cc1noc(C)c1S(=O)(=O)NC1CCCC(O)C1 (stereo not given),-5,0.96
CCN1C(=O)c2cc(NS(=O)(=O)c3ccc(NC(C)=O)cc3C)ccc2Oc2ccccc21,-19,2.12
CC(C)CCOc1ccc(S(=O)(=O)N(CC#N)CC(F)(F)F)cc1,-9,1.07
Cc1cccnc1C[C@H](C)NC(=O)c1cnc(N2CCN(C)CC2)nc1C,-2,0.52
COc1ccc(C(=O)CCC(=O)NCC#N)c(Cl)c1,-11,1.29
CC(C)Cc1nc(CNC(=O)[C@H](C)OC(C)C)no1,-11,1.39
CCS(=O)(=O)c1ccc2oc(-c3ccccc3OS(=O)(=O)c3ccccc3OC)nc2c1,-11,1.76
Cc1ccc(C(=O)NCC(F)(F)F)s1,0,-0.01
Cc1cc2sc(NC(=O)N[C@@]3(C)CCOC3)nc2s1,-10,1.03
CCNc1cnc(-c2noc([C@H]3CC(=O)N(c4nccs4)C3)n2)cn1,-7,0.71

Structure (SMILES),% Inhibition [%],Z score
O=C(CC1CC2CCC1C2)N1CC2CC1CS2(=O)=O (stereo not given),-6,0.89
CCN(CC(=O)Nc1c(F)cccc1F)C(=O)c1ccccn1,-6,0.81
CCc1nn(C)c2c(=O)n([C@@H](CC)COC)cnc12,-12,1.3
CCCCn1c(N)c(N2CCOCC2)c(=O)n(CC(=O)Nc2cc(OC)cc(OC)c2)c1=O,-10,1.17
CN1CCN(Cc2ccc(NCc3ccc(-c4cccnc4)o3)cc2Br)CC1,2,-0.28
Cc1cc(C(=O)O[C@H]2CCc3cccnc32)on1,-6,0.61
CC1(C)NC(=O)N(CC(=O)N2CCC[C@H](n3cccn3)C2)C1=O,-7,0.97
CC(C)c1noc(COc2ccc(C(=O)NC3CC3)cc2)n1,-6,0.58
CC(=O)N[C@@H](CCC(N)=O)c1ncnn1Cc1ccccc1,2,-0.43
CCC(OC1CCCC(C)C1)C(=O)Nc1nnc[nH]1 (stereo not given),-2,0.3
COc1c(F)c(F)cc(C(=O)N2CC[C@@H](c3cccs3)S(=O)(=O)CC2)c1F,-6,0.97
COc1ccc(C)cc1S(=O)(=O)N1CC[C@H](Oc2ccncn2)C1,-4,0.6
CCCc1nnc(N2CC[C@@](O)(CC)[C@@H](O)C2)s1,3,-0.53
Cc1ccc(C(=O)Nc2cnn(C(C)C)c2)cc1-c1cnn(C)c1,-13,1.76
CCOC(=O)Nc1nc2c(s1)CN(C(=O)c1cc(-c3ccccc3)on1)CC2,-16,3.25
Cc1ccc(OCCNC(C)(C)C)cc1,-8,1.1
CCn1c(=O)c2ccnn2c2ccc(C(=O)NCCN3CCCCC3)cc21,11,-1.97
CC(Nc1nc2ccccc2o1)C1CCCO1 (stereo not given),-3,0.51
Cc1ncsc1CN(C)C[C@H]1CCN(c2ccc3nnc(C(C)(C)C)n3n2)C1,-46,5.42
CC1CCC(Nc2ccn(CCC(N)=O)n2)C(C)C1 (stereo not given),-7,0.63
Cc1ccc(C(C)NC(C)CCS(C)(=O)=O)cc1C (stereo not given),2,-0.2
OCc1cc2cc(CCOCc3ccccc3)ccc2[nH]1,-13,2.57

Structure (SMILES),% Inhibition [%],Z score
Cc1cc(C)nc(Nc2ccc(C(=O)Nc3ccc(C(N)=O)cc3)cc2)n1,0,0.04
Cc1cc(C)cc(CN2CCN(c3ccnc(C)c3)CC2=O)c1,-12,2.1
Cc1cc(CNC(=O)N(C)CCO)ccc1Cl,-4,0.35
OCCn1nc(-c2ccco2)nc1CCc1ccc2c(c1)OCO2,-18,2.66
Cc1c(NC(=O)N2CCC[C@@]3(CCN(C)C3)C2)cccc1C(=O)N(C)C,5,-0.77
CC(C)(C)OC(=O)N1CC([C@H](F)C(=O)N2CC(Cc3cccc(OC(F)(F)F)c3)C2)C1,0,-0.07
CC(C)c1nc(NCc2ccc(C(=O)O)cc2)nc(N(C)C)n1,-3,0.52
O=C1C[C@@H](C(=O)c2ccc3c(c2)OCO3)c2c(-c3ccc(Cl)cc3)n[nH]c2N1,-18,2.31
COCC1CN(CC(O)C(F)(F)F)CC(C)O1 (stereo not given),-6,0.83
O=C(COc1ccc(Cl)cc1)N1CC[C@H](N2C(=O)CNC2=O)C1,-7,1.24
Cn1cccc1-c1nnc2n1CCCC2,6,-1.18
O=C(Nc1nccs1)[C@H]1CCCN(Cc2cnc3ccccn23)C1,-24,2.04
Cc1c(C(=O)N(C)CCc2ccccn2)oc2c(Cl)cccc12,-11,2.02
Cc1cnc(N2CCN(C(=O)C(C)(C)N3CCN(C(=O)OC(C)(C)C)CC3)CC2)s1,-1,0.11
CC(=O)N1CCC(C(=O)N2c3ccccc3C[C@@H]2C)CC1,-9,1.71
Cc1nn(-c2ccc(F)cc2)c2c1c(=O)c(C(=O)NCc1cccs1)cn2C,-1,0.1
Cc1n[nH]c(CN2CCN(Cc3ccccc3)[C@H]3CS(=O)(=O)C[C@H]32)n1,-3,0.34
CCOC[C@@H](O)CN(Cc1c(-c2ccccc2)nn(C)c1Oc1ccc(C)cc1)C1CC1,-12,1.17
O=C(NC1CCOC2(CCS(=O)(=O)C2)C1)NC1CCCC12CCCCC2 (stereo not given),-3,0.42
CC(C)C1CCCCC1NC(=O)C(=O)Nc1ncn(CC(=O)N(C)C)n1 (stereo not given),20,-2.3
O=C1NC2(CCN(C(=O)NCCc3ccccc3)CC2)Nc2c(Cl)cccc21,-4,0.47
Cc1cc(F)ccc1-c1ccc(C(=O)N[C@@]2(CO)CCOC2)cc1F,-2,0.33

Structure (SMILES),% Inhibition [%],Z score
O=C(Nc1c(Cl)cccc1Cl)c1ncc(-c2ccccc2)o1,15,-2.07
Cc1cc(=O)c2c(C3CCCC3)nn(-c3ccccc3)c2[nH]1,-14,1.66
O=C(N[C@H]1CCOC12CCCC2)c1cc(CO)on1,11,-1.39
COC[C@@H]1[C@H](C(=O)N2CCN(c3ccc(F)cc3)CC2)CCC(=O)N1C,-17,2.05
Cc1noc(C)c1NC(=O)COCC1CC1,-8,0.98
COc1cccc(C(=O)N2CCC3(CC2)C[C@@H](N2CCOCC2)CCO3)c1,-5,0.67
CC(=O)Nc1ccc(C)cc1NCC(=O)NCC(F)(F)F,-11,1.77
O=C(Nc1cccnc1)N(CCC(F)(F)F)C1CCC1,-2,0.25
O=C(Cn1cnnn1)Nc1cc(-c2ccccc2)ccc1Cl,-4,0.41
Cc1onc(-c2ccccc2Cl)c1C(=O)Nc1cccc(S(=O)(=O)N2CCOCC2)c1,-13,1.81
CCOC(=O)[C@]12CCCN[C@@H]1CCN(C(=O)OCc1ccccc1)C2,-15,2.16
COc1cccc(Nc2nnc(CC(=O)N3CCCCC3)s2)c1,-19,2.24
CC[C@@H](C(=O)OC)n1nc(C2CCNCC2)n(Cc2ccccc2)c1=O,-10,1.1
O=C1C[C@H](c2ccc(OCc3ccccc3Cl)cc2)c2cnn(-c3nc4ccccc4s3)c2N1,-10,1.49
Cc1oc(-c2ccc3ccccc3c2)nc1Cn1cccn1,5,-0.87
Cc1ccc(OCCN(C)S(=O)(=O)N2CCCCC2)c(Cl)c1,-7,1.09
COc1ccccc1-n1nc(CN(C(=O)CC(C)(C)C)C2CC2)c2c1CCN(Cc1ccccc1F)C2,-14,1.34
COc1ccccc1CNC(=O)c1ccccc1N1C(=O)[C@@H]2Cc3c([nH]c4ccccc34)C(c3ccccc3C)N2C1=O (stereo not given in full),-6,0.91
Cc1nc(NCCc2ccc3c(c2)OCO3)cc([C@H]2C[C@@H](O)C2)n1,1,-0.09

# Source: ChEMBL document CHEMBL4888484, “Replenishing the malaria drug discovery pipeline: Screening and hit evaluation of the MMV Hit Generation Library 1 (HGL1) against asexual blood stage Plasmodium falciparum ,using a nano luciferase reporter read-out” (2022)
